{
  "source": "PubChem BioAssay AID504333",
  "about": "(National Center for Advancing Translational Sciences (NCATS), 2011)",
  "note": "Hit rate of the full screen: of about 360,000 compounds, about 16,000 (4.4%) were called active. The inconclusive results got no clear call from the source; some entries with a clear call stand among them for comparison. The call rests on the fitted dose curve; in most records, active means well fitted inhibition curve with a large enough effect; inconclusive means small, poorly fitted or top-dose-only effect; inactive means no such curve, though single readings can be large or run the other way. A potency beside an inconclusive call is a rough fit, not a confirmed value. On the % scale 0 is the no-effect control and ±100 the full control effect; potency means the concentration at half of the fitted maximal effect; tags describe the fitted curve by direction and shape.",
  "data": [
    {"biological_target": "Bromodomain adjacent to zinc finger domain protein 2B (Homo sapiens) (UniProt Q9UIF8)", "sequence (Q9UIF8 whole entry, looked up, the tested form may be a part)": "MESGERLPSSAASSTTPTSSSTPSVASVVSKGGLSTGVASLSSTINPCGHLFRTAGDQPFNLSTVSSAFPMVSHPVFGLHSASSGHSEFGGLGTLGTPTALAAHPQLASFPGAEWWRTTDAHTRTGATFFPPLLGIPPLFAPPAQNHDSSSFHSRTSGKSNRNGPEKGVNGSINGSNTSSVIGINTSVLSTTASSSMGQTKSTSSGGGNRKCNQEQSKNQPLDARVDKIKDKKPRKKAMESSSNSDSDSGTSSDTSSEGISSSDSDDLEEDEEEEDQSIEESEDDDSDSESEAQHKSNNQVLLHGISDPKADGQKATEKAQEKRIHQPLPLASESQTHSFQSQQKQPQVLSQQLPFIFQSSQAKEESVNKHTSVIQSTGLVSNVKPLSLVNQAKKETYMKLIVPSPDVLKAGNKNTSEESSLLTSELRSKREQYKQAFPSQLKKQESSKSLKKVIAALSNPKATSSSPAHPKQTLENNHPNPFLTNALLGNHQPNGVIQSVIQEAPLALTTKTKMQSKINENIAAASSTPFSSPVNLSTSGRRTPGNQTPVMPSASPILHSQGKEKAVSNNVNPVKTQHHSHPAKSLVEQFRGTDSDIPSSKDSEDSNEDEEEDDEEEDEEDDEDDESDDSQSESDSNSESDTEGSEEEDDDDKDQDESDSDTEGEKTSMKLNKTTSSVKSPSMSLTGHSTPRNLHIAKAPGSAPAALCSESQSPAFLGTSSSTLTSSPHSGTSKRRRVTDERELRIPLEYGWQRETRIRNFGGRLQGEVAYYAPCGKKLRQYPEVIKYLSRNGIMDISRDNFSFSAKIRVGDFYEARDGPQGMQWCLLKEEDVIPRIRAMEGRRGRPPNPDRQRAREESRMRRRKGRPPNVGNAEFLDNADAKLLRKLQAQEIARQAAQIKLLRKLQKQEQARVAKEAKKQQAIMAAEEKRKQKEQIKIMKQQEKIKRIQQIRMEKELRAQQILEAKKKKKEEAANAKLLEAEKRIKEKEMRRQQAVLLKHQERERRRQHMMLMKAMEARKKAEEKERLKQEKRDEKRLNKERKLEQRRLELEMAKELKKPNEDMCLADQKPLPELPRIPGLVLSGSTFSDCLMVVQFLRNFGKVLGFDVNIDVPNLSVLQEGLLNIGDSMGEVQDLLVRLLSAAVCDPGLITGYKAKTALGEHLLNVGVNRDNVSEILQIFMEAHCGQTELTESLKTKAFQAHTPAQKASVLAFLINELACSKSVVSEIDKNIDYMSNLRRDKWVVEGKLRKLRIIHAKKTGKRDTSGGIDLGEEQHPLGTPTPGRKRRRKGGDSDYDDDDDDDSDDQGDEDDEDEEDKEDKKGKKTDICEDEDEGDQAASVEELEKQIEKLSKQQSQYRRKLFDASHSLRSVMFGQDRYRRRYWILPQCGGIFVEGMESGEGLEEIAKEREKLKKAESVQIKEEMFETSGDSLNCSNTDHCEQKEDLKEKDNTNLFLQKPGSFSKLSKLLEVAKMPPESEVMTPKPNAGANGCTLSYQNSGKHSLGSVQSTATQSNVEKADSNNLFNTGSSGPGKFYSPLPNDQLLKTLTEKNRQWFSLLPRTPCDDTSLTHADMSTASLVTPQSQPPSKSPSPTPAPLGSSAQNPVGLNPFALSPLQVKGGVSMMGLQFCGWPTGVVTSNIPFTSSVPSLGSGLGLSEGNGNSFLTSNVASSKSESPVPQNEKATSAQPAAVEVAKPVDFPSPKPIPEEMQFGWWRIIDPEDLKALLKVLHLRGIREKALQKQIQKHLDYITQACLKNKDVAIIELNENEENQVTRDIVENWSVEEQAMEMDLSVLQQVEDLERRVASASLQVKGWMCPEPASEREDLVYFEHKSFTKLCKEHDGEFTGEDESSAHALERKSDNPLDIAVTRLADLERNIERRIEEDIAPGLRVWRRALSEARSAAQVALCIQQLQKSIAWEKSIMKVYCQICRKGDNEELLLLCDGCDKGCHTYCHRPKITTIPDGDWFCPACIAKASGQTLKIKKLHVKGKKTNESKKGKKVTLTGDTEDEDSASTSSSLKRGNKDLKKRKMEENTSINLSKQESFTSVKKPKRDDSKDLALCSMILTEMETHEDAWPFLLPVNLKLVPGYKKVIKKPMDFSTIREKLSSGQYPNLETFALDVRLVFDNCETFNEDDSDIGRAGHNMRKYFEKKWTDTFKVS", "experiment": "qHTS Assay for Inhibitors of BAZ2B; further: nearly all actives have a fitted effect of over 60% in size", "settings": "AlphaScreen BAZ2B-H3K14Ac peptide displacement; activity change, negative = inhibition: at 114 µM (top of the series) unless noted", "outline": "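Protein-peptide AlphaScreen: BAZ2B 50 nM, b-H3K14Ac 50 nM, 1x PBS pH 7.4 + 0.01% Tween-20. Preincubation 30 min RT; cpd 30 min RT (top 110 uM); beads 20 min RT, light-protected.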", "values": [
      {"smiles": "O=C(c1ccc2oc(Cc3ccc(Cl)cc3)nc2c1)N1CC[C@H](O)C1", "activity change, negative = inhibition": "inactive: -19.8%"},
      {"smiles": "CCCC(=O)Oc1ccc2c(C)cc(=O)oc2c1", "activity change, negative = inhibition": "inactive: 4.92%"},
      {"smiles": "O=C1/C(=C/c2ccc(Cl)cc2)SC(=S)N1CCC(=O)N1CCCCC1CCO", "note": "(stereo unspecified)", "Potency": "inconclusive: 25.1 µM [inhibitor, partial curve]"},
      {"smiles": "O=C(O)CCN1C(=O)CC(N2C(=O)/C(=C/c3ccc(Cl)cc3)SC2=S)C1=O", "note": "(stereo unspecified)", "activity change, negative = inhibition": "inactive: -33.3%"},
      {"smiles": "FC(F)(F)c1cnc(Nc2ccc(N3CCOCC3)cc2)c(Cl)c1", "Potency": "active: 35.5 µM"},
      {"smiles": "CN(C)c1ccc(CN(Cc2ccco2)C(=O)c2ccco2)cc1", "Potency": "inconclusive: 25.1 µM [inhibitor, single point]"},
      {"smiles": "COc1cccc(C(CNc2ccc(S(=O)(=O)N3CCN(C)CC3)cc2[N+](=O)[O-])N(C)C)c1", "note": "(stereo unspecified)", "Potency": "inconclusive: 70.8 µM [inhibitor, single point]"},
      {"smiles": "O=C(NCc1ccc2c(c1)CCN2C(=O)c1ccccc1)c1ccc(Br)o1", "Potency": "inconclusive: 70.8 µM [inhibitor, single point]"},
      {"smiles": "COc1c(OC(C)=O)ccc(/C=C/c2ccc3cccc(OC)c3n2)c1[N+](=O)[O-]", "Potency": "inconclusive: 28.2 µM [inhibitor, full curve]"},
      {"smiles": "O=C(CCN1C(=O)/C(=C/c2ccc(F)cc2)SC1=S)NC1C=CS(=O)(=O)C1", "note": "(stereo unspecified)", "activity change, negative = inhibition": "inactive: -2.32%"},
      {"smiles": "COc1ccc(OC)c(C(=O)COC(=O)c2[nH]c(C)c(C(C)=O)c2C)c1", "activity change, negative = inhibition": "inactive: 6.37%"},
      {"smiles": "COCCNC(=O)CCSc1nc(-c2ccc3c(c2)OCO3)cc(C(F)(F)F)n1", "Potency": "inconclusive: 89.1 µM [inhibitor, single point]"},
      {"smiles": "Cn1c(SCC(=O)NC2CCCC2)nnc1-c1ccccn1", "Potency": "inconclusive: 89.1 µM [inhibitor, single point]"},
      {"smiles": "Cc1ccc(C(=O)NC2CCN(CCCC(=O)c3ccc(F)cc3)CC2)cc1", "Potency": "inconclusive: 89.1 µM [inhibitor, single point]"},
      {"smiles": "CN(c1ccccc1)c1ccc(/C=C(\\CCC(=O)O)c2nc3ccccc3s2)cc1[N+](=O)[O-]", "Potency": "active: 11.2 µM"},
      {"smiles": "COC(=O)C1=C(NC(=O)CCCCl)CCS1", "activity change, negative = inhibition": "inactive: -33.9%"},
      {"smiles": "C/C(Cl)=C\\Cn1c(NCCc2ccccc2)nc2c1c(=O)n(C)c(=O)n2C", "Potency": "inconclusive: 89.1 µM [inhibitor, single point]"},
      {"smiles": "CCS(=O)(=O)N1CCN(c2cc3c(cc2[N+](=O)[O-])n(C)c(=O)n3C)CC1", "Potency": "active: 56.2 µM"},
      {"smiles": "CCn1cc(C(C)NC(=O)Nc2ccccc2C(=O)OC)c(C)n1", "note": "(stereo unspecified)", "Potency": "inconclusive: 89.1 µM [inhibitor, single point]"},
      {"smiles": "S=C(NCc1ccc(Cl)c(Cl)c1)Nc1ccc2c(c1)OCO2", "Potency": "inconclusive: 39.8 µM [inhibitor, partial curve]"},
      {"smiles": "COc1cc(C(=O)NCC2CCCO2)cc(Br)c1OCc1ccccc1", "note": "(stereo unspecified)", "activity change, negative = inhibition": "inactive: 5.13%"},
      {"smiles": "COc1cccc(CN(CC2CCCO2)S(=O)(=O)c2ccc(S(=O)(=O)NCC3CCCO3)cc2)c1OC", "note": "(stereo unspecified)", "Potency": "inconclusive: 89.1 µM [inhibitor, single point]"},
      {"smiles": "O=C(O)Cn1c(=S)sc2ccccc21", "Potency": "active: 89.1 µM"},
      {"smiles": "Cc1nn(C)cc1S(=O)(=O)Nc1ncccn1", "Potency": "inconclusive: 79.4 µM [inhibitor, single point]"},
      {"smiles": "Fc1cccc(Cl)c1C1Nc2cccc3cccc(c23)N1", "Potency": "active: 31.6 µM"},
      {"smiles": "C/C(=N\\NC(=S)Nc1cccc(C)c1)c1cc2ccccc2o1", "Potency": "inconclusive: 22.4 µM [inhibitor, full curve]"},
      {"smiles": "O=C(COC(=O)c1ccccn1)Nc1cccnc1Cl", "Potency": "active: 79.4 µM"},
      {"smiles": "CCN1C(=S)N[C@@H](c2cccc(C(F)(F)F)c2)C(C(=O)OC)=C1C", "Potency": "active: 50.1 µM"},
      {"smiles": "Cc1cccc(NC(=S)N/N=C/c2ccc([N+](=O)[O-])s2)c1", "Potency": "active: 10 µM"},
      {"smiles": "COc1cc(C2C(C#N)=C(N)Oc3cc(C)n(Cc4ccccn4)c(=O)c32)cc2c1OCO2", "note": "(stereo unspecified)", "Potency": "inconclusive: 89.1 µM [inhibitor, single point]"},
      {"smiles": "COc1cccc(-c2nc(NC(C)(C)C)c3ccccc3n2)c1O", "Potency": "inconclusive: 31.6 µM [inhibitor, partial curve]"},
      {"smiles": "CC1CCN(CCCNC(=O)c2ccc(Cn3c(=S)[nH]c4ccc(Br)cc4c3=O)cc2)CC1", "Potency": "inconclusive: 39.8 µM [inhibitor, full curve, poor fit]"},
      {"smiles": "COc1cccc(NC(=O)c2sc3nc(C)c(C(=O)Nc4ccc(C)cc4C)c(-c4cccs4)c3c2N)c1", "activity change, negative = inhibition": "inactive: 11.7%"},
      {"smiles": "CCOc1ccccc1OCCN1CCC(Cc2ccccc2)CC1", "Potency": "active: 56.2 µM"},
      {"smiles": "CCN1CCN(C(=O)c2ccc3c(c2)N(Cc2ccc(F)cc2)C(=O)c2ccccc2S3(=O)=O)CC1", "activity change, negative = inhibition": "inactive: -13.8%"},
      {"smiles": "Cc1cc(C)c2nc(-c3ccccn3)cc(C(=O)NCc3ccco3)c2c1", "Potency": "inconclusive: 89.1 µM [inhibitor, single point]"}
    ]}
  ]
}
